Reference: PubChem BioAssay AID588342 (National Center for Advancing Translational Sciences (NCATS), 2011)
Among all 360,000 compounds or so, about 25,000 (6.9%) were called active. The inconclusive results got no clear call from the source; some entries with a clear call stand among them for comparison. Calls follow the shape of the dose curve; as a rule, active = well fitted inhibition curve with a large enough effect; inconclusive = small, poorly fitted or top-dose-only effect; inactive = flat fitted curve, though single readings scatter. Potencies of inconclusive entries are doubtful fits and often do not repeat.

Each compound was assayed against Luciferin 4-monooxygenase (Photinus pyralis) (UniProt P08659) (assay: qHTS profiling assay for firefly luciferase inhibitor/activator using purifed enzyme and Km concentrations of substrates (counterscreen for miR-21 project)). Details: purified FLuc, luminescence inhibition; series mostly up to 57.5 µM.
Sequence of UniProt P08659 (P08659 whole entry, looked up): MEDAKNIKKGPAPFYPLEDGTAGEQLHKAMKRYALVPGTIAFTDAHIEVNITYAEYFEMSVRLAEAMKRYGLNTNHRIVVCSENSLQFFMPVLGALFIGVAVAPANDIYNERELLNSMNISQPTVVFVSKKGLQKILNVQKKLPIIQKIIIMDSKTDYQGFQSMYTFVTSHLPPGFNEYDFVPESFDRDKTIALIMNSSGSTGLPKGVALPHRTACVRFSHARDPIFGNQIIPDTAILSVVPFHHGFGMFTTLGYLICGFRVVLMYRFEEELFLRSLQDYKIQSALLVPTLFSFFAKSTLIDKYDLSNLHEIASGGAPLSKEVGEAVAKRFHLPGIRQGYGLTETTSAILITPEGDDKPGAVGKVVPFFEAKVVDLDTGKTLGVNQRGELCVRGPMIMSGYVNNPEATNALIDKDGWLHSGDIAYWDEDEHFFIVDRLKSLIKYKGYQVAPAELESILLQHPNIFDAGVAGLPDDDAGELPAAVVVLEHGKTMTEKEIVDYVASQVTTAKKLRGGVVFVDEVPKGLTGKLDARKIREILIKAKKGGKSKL
How it was run: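 Purified P. pyralis luciferase (10nM final) with 10uM D-luciferin and 10uM ATP (Km levels) in 50mM Tris acetate pH 7.5, 10mM Mg acetate, 0.01% Tween-20, 0.05% BSA; qHTS 6-point titration, ~60 µM downward; luminescence read.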
Also: nearly all actives have a fitted effect of over 55% in size.
Potency is read from the fitted curve at half-maximal effect; tags tell the direction and shape of the fitted curve.

O=C(NCCc1ccccc1)c1ccco1 was tested. Which Potency did it give?
The Potency was inconclusive: 16.9 µM [inhibitor, partial curve].

With O=c1c2ccccc2nc2sc(Nc3ccc(Br)cc3)nn12 as the compound, how does the Potency read?
The Potency was inconclusive: 0.757 µM [inhibitor, full curve].

How did the Potency turn out when CCOc1ccc2c(c1)c(=O)c(C(=O)c1ccc3c(c1)OCO3)cn2Cc1cccc(F)c1 was run?
The Potency was “inactive”.

For O=C(NCCOc1ccccc1Cl)C(=O)c1c[nH]c2ccccc12, which Potency is on record?
The Potency was inconclusive: 30.1 µM [inhibitor, partial curve, poor fit].

Cc1noc(C)c1COc1cccc(C(=O)Nc2ccc3c(c2)OCO3)c1 was tested. Which Potency did it give?
Its Potency is inconclusive: 37.9 µM [inhibitor, single point].

How did the Potency turn out when O=C(O)c1ccccc1CSc1nc2ccccc2n1Cc1ccccc1C(=O)O was run?
The Potency was inconclusive: 37.9 µM [inhibitor, partial curve, poor fit].

For Cc1cccc(NC(=S)NC(=O)c2cccs2)n1, which Potency is on record?
Its Potency is inconclusive: 30.1 µM [inhibitor, single point].

With CCOc1ccc(NC(=O)Nc2ccc3nsnc3c2)cc1 as the compound, how does the Potency read?
Its Potency is inconclusive: 9.53 µM [inhibitor, partial curve].

How did the Potency turn out when COc1cccc(/C=C/C(=O)OCC(=O)Nc2ccc3[nH]c(=O)[nH]c3c2)c1OC was run?
The Potency was inconclusive: 4.26 µM [inhibitor, full curve].

c1ccc(OCCn2c(-c3ccco3)nc3ccccc32)cc1 was tested. Which Potency did it give?
The Potency was inconclusive: 16.9 µM [inhibitor, partial curve].

Cc1ccc(Cn2cc(SCC(=O)Nc3nccs3)c3ccccc32)cc1 was tested. Which Potency did it give?
Its Potency is inconclusive: 3.38 µM [inhibitor, partial curve, poor fit].

For CCc1cccc(NC(=O)CSc2n[nH]c(-c3ccccc3Cl)n2)c1, which Potency is on record?
The Potency was inconclusive: 21.3 µM [inhibitor, partial curve].

For CCOc1cc(/C=N\Nc2ncc(F)c(N3CCOCC3)n2)ccc1Oc1nc(Cl)ncc1F, which Potency is on record?
Its Potency is active: 21.3 µM.

For O=C(Nc1ccc2nc(SCCOc3ccccc3Cl)sc2c1)c1ccco1, which Potency is on record?
Its Potency is inconclusive: 23.9 µM [inhibitor, partial curve, poor fit].

Cc1cc(C)c(S(=O)(=O)/N=C2\C=C(Nc3ccc(C(=O)O)cc3)C(=O)c3ccccc32)c(C)c1 was tested. Which Potency did it give?
The Potency was inconclusive: 26.9 µM [inhibitor, single point].

How did the Potency turn out when COc1cccc(-c2nn(C)c3sc(C(=O)NCCc4cccc(C)c4)cc23)c1 was run?
The Potency was “inactive”.

Which Potency does the source give for COc1ccc(CCNC(=O)C2CCN(C(=O)c3ccc(C(C)(C)C)cc3)CC2)cc1OC here?
The Potency was inconclusive: 19 µM [inhibitor, partial curve, poor fit].

With O=C(O)CC(Cc1ccc(Cl)cc1)C(=O)Nc1ccc([N+](=O)[O-])cc1 (stereo not given) as the compound, how does the Potency read?
The Potency was inconclusive: 37.9 µM [inhibitor, single point].

How did the Potency turn out when COc1cc(OC)cc(C(=O)N[C@H](C(=O)OCC(=O)c2ccc3c(c2)NC(=O)CO3)C(C)C)c1 was run?
The Potency was inconclusive: 15.1 µM [inhibitor, partial curve].

Cc1ccc(NC(=O)c2cccc(Cl)c2)nc1 was tested. Which Potency did it give?
The Potency was inconclusive: 21.3 µM [inhibitor, partial curve, poor fit].

Which Potency does the source give for Cc1ccc(NN=C2c3ccccc3-c3ccccc32)cc1 here?
The Potency was active: 15.1 µM.

How did the Potency turn out when O=C(NC1CCCCNC1=O)c1ccc(Cl)cc1 (stereo not given) was run?
The Potency was inconclusive: 21.3 µM [inhibitor, partial curve, poor fit].

CC1CN(C(=O)c2ccc(COc3ccccc3Cl)o2)CC(C)O1 (stereo not given) was tested. Which Potency did it give?
Its Potency is “inactive”.

With CCOc1c(C)cc2[nH]c(CCC(=O)O)nc2c1C as the compound, how does the Potency read?
Its Potency is inconclusive: 23.9 µM [inhibitor, single point].

With CCS(=O)(=O)C1=NN2C(=N)/C(=C\c3ccc(SCc4ccco4)o3)C(=O)N=C2S1 as the compound, how does the Potency read?
Its Potency is inconclusive: 37.9 µM [inhibitor, single point].

With CC1=NN(c2ccccc2)C(=O)/C1=C/c1ccc(Cl)cc1 as the compound, how does the Potency read?
The Potency was inconclusive: 26.9 µM [inhibitor, single point].

For Cc1ccc(C(=O)N/C(=C/c2cn(-c3ccccc3)nc2-c2ccccc2)C(=O)O)cc1, which Potency is on record?
The Potency was inconclusive: 16.9 µM [inhibitor, partial curve].

With O=C(c1ccc(OC(F)(F)F)cc1)c1ncc[nH]1 as the compound, how does the Potency read?
The Potency was inconclusive: 26.9 µM [inhibitor, single point].

How did the Potency turn out when O=S(=O)(c1ccccc1)c1nnn2c1nc(N1CCN(c3ccccc3)CC1)c1cc(Cl)ccc12 was run?
Its Potency is “inactive”.

With CC(=O)c1ccc(NC(=O)Oc2ccccc2)cc1 as the compound, how does the Potency read?
The Potency was inconclusive: 37.9 µM [inhibitor, single point].

With O=C(CN1CCc2ccccc2C1)Nc1ccc(Br)cc1 as the compound, how does the Potency read?
Its Potency is inconclusive: 21.3 µM [inhibitor, partial curve, poor fit].

For O=C(OC[C@H]1O[C@@H](OC(=O)c2cc(O)c(O)c(OC(=O)c3cc(O)c(O)c(O)c3)c2)[C@H](OC(=O)c2cc(O)c(O)c(OC(=O)c3cc(O)c(O)c(O)c3)c2)[C@@H](OC(=O)c2cc(O)c(O)c(OC(=O)c3cc(O)c(O)c(O)c3)c2)[C@@H]1OC(=O)c1cc(O)c(O)c(OC(=O)c2cc(O)c(O)c(O)c2)c1)c1cc(O)c(O)c(OC(=O)c2cc(O)c(O)c(O)c2)c1, which Potency is on record?
Its Potency is inconclusive: 23.9 µM [inhibitor, single point].

Which Potency does the source give for CCOC(=O)/C(C#N)=C/c1ccc(-c2ccccc2)o1 here?
Its Potency is active: 9.53 µM.

O=S(=O)(c1ccc(SCc2ccccc2)nc1)N1CCCCCC1 was tested. Which Potency did it give?
Its Potency is inconclusive: 23.9 µM [inhibitor, partial curve, poor fit].

CCC(Cc1ccccc1)NC(=O)CCS(=O)(=O)c1cc2c(cc1Cl)NC(=O)CO2 (stereo not given) was tested. Which Potency did it give?
The Potency was inconclusive: 5.36 µM [inhibitor, partial curve, poor fit].

For NC1=NN=C(c2ccc3c(c2)OCCO3)CS1, which Potency is on record?
The Potency was active: 5.36 µM.

With Clc1ccc(/C=N/Nc2ccccn2)cc1 as the compound, how does the Potency read?
The Potency was active: 6.75 µM.

How did the Potency turn out when O=C(Cn1cnc2ccccc2c1=O)c1ccc2c(c1)OCCO2 was run?
Its Potency is active: 6.01 µM.

With c1ccc(Cc2nn3c(Cn4nnc5ccccc54)nnc3s2)cc1 as the compound, how does the Potency read?
Its Potency is inconclusive: 21.3 µM [inhibitor, partial curve].

CCn1cc(C(=O)NCc2cccnc2)c2cc(OC)c(OC)cc2c1=O was tested. Which Potency did it give?
The Potency was “inactive”.
